# Assay results: article PMC4336329 (PLoS ONE, 2015)
# In all, about 310,000 compounds went through this assay and about 14,000 (4.5%) showed an effect of 50% or more. Effects have a minus sign here. The list shows a part of the results.
# Target: human ether-à-go-go-related gene (hERG) potassium channel (human, UniProt Q12809)
# Test: primary screen, population patch clamp on CHO cells stably expressing hERG
# 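Note: peak tail current of the secondary pulse compared with the same well before compound.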
# human ether-à-go-go-related gene (hERG) potassium channel, sequence (Q12809 whole entry, looked up): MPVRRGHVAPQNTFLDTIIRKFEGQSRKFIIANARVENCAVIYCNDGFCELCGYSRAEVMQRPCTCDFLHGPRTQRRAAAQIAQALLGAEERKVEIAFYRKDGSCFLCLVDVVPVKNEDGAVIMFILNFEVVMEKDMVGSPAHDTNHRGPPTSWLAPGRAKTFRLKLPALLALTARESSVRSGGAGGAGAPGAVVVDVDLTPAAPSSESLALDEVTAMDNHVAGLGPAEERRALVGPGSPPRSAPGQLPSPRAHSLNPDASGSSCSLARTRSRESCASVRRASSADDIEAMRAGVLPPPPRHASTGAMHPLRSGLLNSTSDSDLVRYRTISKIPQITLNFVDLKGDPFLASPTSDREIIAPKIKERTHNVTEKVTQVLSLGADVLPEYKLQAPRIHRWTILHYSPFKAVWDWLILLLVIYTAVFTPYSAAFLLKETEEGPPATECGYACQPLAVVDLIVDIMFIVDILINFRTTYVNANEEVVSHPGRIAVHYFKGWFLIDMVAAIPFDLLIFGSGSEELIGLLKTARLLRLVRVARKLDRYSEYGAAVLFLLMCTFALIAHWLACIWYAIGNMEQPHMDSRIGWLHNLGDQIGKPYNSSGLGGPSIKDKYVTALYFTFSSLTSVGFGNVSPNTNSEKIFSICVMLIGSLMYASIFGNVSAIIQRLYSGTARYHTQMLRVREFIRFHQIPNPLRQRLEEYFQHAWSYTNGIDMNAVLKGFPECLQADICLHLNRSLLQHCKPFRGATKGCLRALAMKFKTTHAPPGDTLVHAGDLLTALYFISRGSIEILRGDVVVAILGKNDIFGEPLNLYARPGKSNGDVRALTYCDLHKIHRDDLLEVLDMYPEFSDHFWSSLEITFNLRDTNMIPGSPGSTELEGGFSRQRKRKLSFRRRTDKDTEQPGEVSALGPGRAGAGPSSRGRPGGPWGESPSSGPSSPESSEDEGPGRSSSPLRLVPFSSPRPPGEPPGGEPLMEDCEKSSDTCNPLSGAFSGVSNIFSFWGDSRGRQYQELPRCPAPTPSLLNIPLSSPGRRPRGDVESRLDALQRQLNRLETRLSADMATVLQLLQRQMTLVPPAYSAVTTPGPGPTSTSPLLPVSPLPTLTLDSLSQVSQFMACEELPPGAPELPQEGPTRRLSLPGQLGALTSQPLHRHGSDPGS
row,Compound,"hERG current change (%, negative = inhibition) at 10uM"
1,Cc1ccc(-c2nnc(SCC(=O)NC3CCCC3)n2C)cc1,14.9%
2,COc1ccc(C(=O)N2CCN(c3ccc(NC(=O)c4cccnc4)cc3)CC2)cc1,-53.7%
3,COc1ccc(-c2cc(C(=O)OCC(=O)N3CCCC3)c3ccccc3n2)cc1,-19.1%
4,O=C(c1ccc(Cl)cc1)N1CCCOC1,15.2%
5,COc1ccc(C2/C(=C(/O)c3ccc(F)cc3)C(=O)C(=O)N2CCCN2CCOCC2)cc1OC (stereo not shown),19%
6,Cn1cccc1/C=C1/C(=O)NC(=S)N(Cc2ccc(F)cc2)C1=O,5.15%
7,Cc1ccc(S(=O)(=O)N2CCCCC2)cc1NC(=O)COC(=O)c1ccccc1F,-13.1%
8,N=c1ncn(CC(O)CN2CCOCC2)c2nc(N3CCOCC3)[nH]c12 (stereo not shown),1.24%
9,Br.CC(=O)N1c2ccccc2C2(O)N=C(C)SC12 (stereo not shown),17%
10,O=C(NCc1ccco1)/C(=C/c1ccc(C(F)(F)F)cc1)c1nc2ccccc2[nH]1,2.47%
11,Cc1ccccc1N(C(=O)c1snc(C(N)=O)c1N)C(C(=O)NC1CCCCC1)c1ccc(O)cc1 (stereo not shown),24.6%
12,Cc1cc(C(=O)COC(=O)[C@H](C)NC(=O)c2ccco2)c(C)n1Cc1ccco1,-23.1%
13,Cc1nnc(NC(=O)CCCOc2ccccc2)s1,11.8%
14,Cc1cc(C)c2c(n1)nn1c(N3CCN(c4ccccc4C)CC3)cc(C)nc21,7.78%
15,COCCNC(=O)CN1C(=O)CSc2cc(S(=O)(=O)N3CCCCCC3)ccc21,-1.65%
16,Cc1cccc(-c2ocnc2C(=O)N2CCN(C(=O)c3cccs3)CC2)c1,-5.1%
17,COC(=O)[C@H](Cc1c[nH]c2ccccc12)NC(=O)NCc1ccc(OC)cc1,7.01%
18,CCOC(=O)C(=NCCCN1CCOCC1)NNc1cccc(C(F)(F)F)c1,-32%
19,O=c1oc2ccccc2c(Nc2ccc(Cl)cc2)c1[N+](=O)[O-],14.5%
20,O=C(NC1CCCCC1)c1ccccc1NC(=S)NC(=O)C1CCC1,-7.98%
21,NC(=O)c1ccccc1OCC(=O)O,-7.15%
22,NC(=O)c1c(NC(=O)c2ccncc2)sc2c1CCCC2,8.71%
23,CC(c1ccco1)N(C(=O)c1ccccc1NS(=O)(=O)c1cc([N+](=O)[O-])ccc1Cl)c1ccccn1 (stereo not shown),23.3%
24,O=C(CCCc1c[nH]c2ccccc12)Nc1ccc2ccccc2c1,12.6%
25,S=c1[nH]nc(Cn2nnc3ccccc32)n1-c1ccccc1,20.5%
26,O=C(Nc1ccc(N2CCN(C(=O)c3ccccc3)CC2)cc1)c1cccnc1,-1.77%
27,COc1ccc(OC)c2c(C)cc(N3CCN(C(=O)c4ccc(Cl)cc4)CC3)nc12,2.81%
28,COc1cc(=O)[nH]c(SCc2c(F)c(F)c(F)c(F)c2F)n1,0.443%

row,Compound,"hERG current change (%, negative = inhibition) at 10uM"
1,COc1cccc(-c2ccc(SCC(=O)NC3CCCC3)nn2)c1,-7.24%
2,CCc1ccc(OCC(=O)NC(C)C)cc1,5.76%
3,CCOC(=O)CNC(=O)CSc1ccc(-c2nc3ccccc3[nH]2)cn1,-6.35%
4,COc1ccc(Cl)cc1NC(=O)CN(C)C1CCCCC1,-34.8%
5,Cc1nc2c(c(N3CCOCC3)n1)OCC(=O)N2,11.8%
6,Cc1cc(S(=O)(=O)Nc2ccc(C(=O)NCC(c3ccco3)N(C)C)cc2)ccc1F (stereo not shown),-34%
7,CCN(CC(=O)NCCN1CCOCC1)S(=O)(=O)c1ccc(F)cc1,6.53%
8,CCOC(=O)C(C(=O)OCC)C(C)C#CCN1CCCCC1 (stereo not shown),-14.5%
9,COc1cc2c(C(=O)N(C)c3ccc(F)cc3)cn(C)c(=O)c2cc1OC,12.8%
10,Clc1ccccc1N1CCN(Cc2c[nH]c3ccccc23)CC1,-35.6%
11,CCOC(=O)c1c(C)[nH]c(C(=O)N2CCc3cc(OC)c(OC)cc3C2)c1C,-12.3%
12,O=S(=O)(c1cccc(S(=O)(=O)N2CCCC2)c1)c1cccc(S(=O)(=O)N2CCCC2)c1,-6.33%
13,Cc1c(O)ccc2c(=O)c(Oc3ccccc3)coc12,24.2%
14,COc1ccccc1OCCOCCOc1ccc(C)cc1[N+](=O)[O-],-42.8%
15,O=C(CSc1ccc(-c2ccco2)nn1)c1cccc([N+](=O)[O-])c1,-2.7%
16,Cc1nonc1C(=O)N/N=C/c1cc2c(cc1Br)OCO2,20.6%
17,COc1ccccc1NC(=O)Cn1cnc2sc(C(=O)Nc3ccc(OC)c(OC)c3)c(C)c2c1=O,33.3%
18,O=C(Nc1cccc2ccccc12)c1ccccc1NS(=O)(=O)c1cccc2cccnc12,-7.41%
19,CCOc1cc(C)c(S(=O)(=O)NCCCn2ccnc2)cc1C,-2.53%
20,Nc1c(N(CCO)C(=O)COc2ccc(Cl)cc2)c(=O)[nH]c(=O)n1Cc1ccccc1,-4.76%
21,COC(=O)CCc1nc2c(C#N)c(-c3ccc(Cl)cc3)ccn2n1,-2.07%
22,CC(=O)Nc1ccc(NC(=O)CN(c2cccc(C(C)=O)c2)S(C)(=O)=O)cc1,14.7%
23,CCOC(=O)c1c(NC(=S)Nc2ccccc2)sc2c1CCCCC2,17.3%
24,O=C(NCc1ccccc1)C(c1ccc(F)cc1)N(Cc1cccs1)C(=O)c1cnccn1 (stereo not shown),0.717%
25,Cc1cccc(N2CCN(C(=O)Cn3nc(C)n4cccc4c3=O)CC2C)c1 (stereo not shown),1.19%
26,COc1ccc(/C=N/NC(=O)c2ccc3nc[nH]c3c2)c(OC)c1OC,12.9%
27,Cn1c(=O)c2c(nc(SCCN3CCOCC3)n2Cc2ccccc2)n(C)c1=O,-32.5%
